Reference: PubChem BioAssay AID995 (National Center for Advancing Translational Sciences (NCATS), 2007)
Screen size: about 72,000 compounds; about 710 (0.99%) were called active. This list was built around the results that the source calls inconclusive (neither active nor inactive); the mix of calls is not that of the screen. Calls come from the whole dose curve; as a rule, active = well fitted inhibition curve with a large enough effect; inconclusive = small, poorly fitted or top-dose-only effect; inactive = no such curve, though single readings can be large or run the other way. Where the call is inconclusive, the potency comes from a doubtful curve fit.

Assay: qHTS Assay for Inhibitors of the ERK Signaling Pathway using a Homogeneous Screening Assay; note: nearly all actives have a fitted effect of over 55% in size
Conditions: HEK293-V1b, vasopressin-stimulated pERK AlphaScreen; activity, negative = inhibition: at 57.5 µM (top of the series) unless noted
Procedure, shortened: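 HEK293 cells stably expressing V1b receptor, seeded overnight in 1% FBS, were treated with compounds for 30 min at 37C, then stimulated 5 min with 25 nM vasopressin; phospho-ERK read by AlphaScreen SureFire after lysis.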
% is set by controls: 0 for no effect and ±100 for the full control effect; potency is the fitted concentration of half-maximal effect; tags give direction and shape of the fitted curve.

Potency, inconclusive:
CC(=O)c1cccc(NC(=O)c2c(F)c(F)c(F)c(F)c2F)c1 31.6 µM [inhibitor, single point]
O=S(=O)(Nc1ncnc2sc3c(c12)CCC3)c1ccc(Cl)s1 5.01 µM [inhibitor, full curve, poor fit]
O=C(Nc1cccc(-c2cn3cccnc3n2)c1)c1ccc2c(c1)OCO2 15.8 µM [inhibitor, single point]
CC1(C)Cc2c(c(N3CCOCC3)nc3sc(-c4ccc(C(=O)O)o4)c(N)c23)CO1 25.1 µM [inhibitor, single point]
O=C(c1cnccn1)N1CCC2(CC1)CCN(c1cccc(-c3ccccc3)c1)CC2 25.1 µM [inhibitor, single point]
CC(=O)N(C)c1ccc(OCC(O)CN(Cc2ccco2)S(=O)(=O)c2ccc(C)cc2)cc1 (centres undefined) 31.6 µM [inhibitor, single point]
O=C(Oc1ccccc1)N1CCC2(CC1)CCN(c1ccccn1)CC2 12.6 µM [inhibitor, partial curve]
Nc1ccc(N=Nc2ccccc2)c(N)c1 39.8 µM [inhibitor, single point]
Cc1cc(OCC(=O)N2CCOCC2)c(C(C)C)cc1Cl 31.6 µM [inhibitor, single point]
CCOC(=O)C(CC)Sc1nc2c(c(=O)[nH]c(=O)n2C)n1C/C=C(/C)Cl (centres undefined) 31.6 µM [inhibitor, partial curve]
Cc1c(C)n(Cc2ccccc2)c2ncnc(N)c12 25.1 µM [inhibitor, single point]
CC(=O)NCCNc1ncnc2ccc(-c3ccccc3Cl)cc12 3.16 µM [inhibitor, full curve]
COC(=O)CCC(=O)Nc1sc2c(c1C#N)CCCC2 7.94 µM [inhibitor, partial curve]
Cn1c(=O)c2c(n(C)c1=O)=NC1(CCCCC1)N=2 39.8 µM [inhibitor, single point]
O=C(Nc1nc(-c2ccc(Cl)s2)cs1)c1ccncc1 2.51 µM [inhibitor, partial curve, poor fit]
COc1ccc(CN2CCN(c3ncccn3)CC2)c(OC)c1 39.8 µM [inhibitor, single point]
CCc1c(C)nc2ncnn2c1N1CCC(C(=O)NCc2cccc(OC)c2)CC1 39.8 µM [inhibitor, single point]
CCOC(=O)C1=C(O)C(=O)N(Cc2ccccc2)C1 12.6 µM [inhibitor, full curve, poor fit]
CCn1c(=O)cc(OCC(=O)Nc2ccccc2C#N)c2ccccc21 31.6 µM [inhibitor, partial curve, poor fit]
COc1ccc(N2CC(C)Cn3c2nc2c3c(=O)n(Cc3ccccc3F)c(=O)n2C)c(OC)c1 (centres undefined) 31.6 µM [inhibitor, partial curve]
CCN(CC(=O)Nc1ccc2c(c1)CCC2)Cc1nc2ccccc2c(=O)[nH]1 12.6 µM [inhibitor, partial curve]
COc1ccc(Oc2ncc3nc(-c4ccc(Cl)cc4)c(=O)n(CCC#N)c3n2)cc1 12.6 µM [inhibitor, partial curve]
COc1cc2nc(-c3cccs3)oc(=O)c2cc1OC 3.16 µM [inhibitor, full curve]
O=C(Nc1ccc2c(c1)OCO2)[C@@H]1[C@@H]2C(=O)N(C3CCCCC3)C(=O)[C@@H]2C2c3ccccc3C=CN21 (some centres undefined) 12.6 µM [inhibitor, partial curve]
COc1ccc(NCc2cc3cc(OC)ccc3[nH]c2=O)cc1 20 µM [inhibitor, partial curve, poor fit]
Cc1nc2cnc(Nc3ccccc3)nc2n(C[C@H]2CCCO2)c1=O 25.1 µM [inhibitor, single point]
O=c1c(-c2ccc(F)cc2)nc2cncnc2n1-c1ccccc1 39.8 µM [inhibitor, single point]
CCOC(=O)C1=C(C)NC(c2ccccc2)=C(C(=O)OCc2ccc([N+](=O)[O-])cc2)[C@@H]1C#Cc1ccccc1 39.8 µM [inhibitor, partial curve, poor fit]

Potency, inactive:
Cc1nnc2ccc(N3CCN(C(=O)c4ccccc4)CC3)nn12
CC(CCC(=O)O)C1CCC2C3CC[C@H]4CC(O)CC[C@@]4(C)C3C=C[C@]12C (some centres undefined)
CN(C(=O)c1c(O)c2ccccc2n(C)c1=O)c1ccccc1
COc1ccc(NC(=O)CN2CCC(n3c(C)nc4cc(F)ccc43)CC2)c(OC)c1
CCOC(=O)C1=C(c2ccccc2)NC(SCC(=O)NC2CCCCC2)=C(C#N)C1c1ccco1 (centres undefined)
COc1ccc(C(NC(C)=O)c2ccc3cccnc3c2O)c(OC)c1 (centres undefined)
COc1nc(C)ccc1-c1noc(-c2ccco2)n1
Nc1nnc(SCc2ccc(F)cc2Cl)s1
Cc1ccc(C(O)c2nc3ccccc3n2C(C)C)cc1 (centres undefined)
CCCN1C[C@@H](CSC)C[C@H]2c3cccc4[nH]cc(c34)C[C@@H]21
Cc1ccc(C)n1-c1ccc(N2CCOCC2)nc1
c1csc(-c2nc3nc4ccccc4nc3n2Cc2ccc3c(c2)OCO3)c1
O=P(CCNCc1ccco1)(c1ccccc1)c1ccccc1

Potency, active:
CN(C)c1ccc(-c2ccc3ncnc(NCc4ccccc4)c3c2)cc1 12.6 µM
C=C[C@@]1(C)CC(=O)[C@@]2(O)[C@@]3(C)[C@@H](O)CCC(C)(C)[C@@H]3[C@H](O)[C@H](OC(C)=O)[C@@]2(C)O1 1.26 µM

activity, negative = inhibition, inconclusive:
CC(C)(C)c1nc(NCCN2CCOCC2)c2nnn(Cc3ccccc3Cl)c2n1 -37.5% [inhibitor]
